PubChem BioAssay AID1468 (National Center for Advancing Translational Sciences (NCATS), 2008)
Screen size: about 280,000 compounds; about 1,100 (0.39%) were called active. The inconclusive results got no clear call from the source; some entries with a clear call stand among them for comparison. Calls come from the whole dose curve; as a rule, active = well fitted inhibition curve with a large enough effect; inconclusive = small, poorly fitted or top-dose-only effect, or effect the other way; inactive = flat fitted curve, though single readings scatter. A potency beside an inconclusive call is a rough fit, not a confirmed value.

molecular target: Microtubule-associated protein tau (Homo sapiens) (UniProt P10636); test: qHTS for Inhibitors of Tau Fibril Formation, Fluorescence Polarization; conditions: K18 P301L tau heparin fibrillization, Alexa594 FP, 6 h; series mostly up to 57.7 µM; activity, negative = inhibition: at the top concentration; note: nearly all actives have a fitted effect of over 55% in size
Method in brief: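 Human K18 P301L fragment (15 uM unlabeled plus 0.24 uM Alexa 594-labeled) in 100 mM sodium acetate pH 7 with compound, aggregation induced by 20 uM heparin for 6 hr at 37 C. ThT (30 uM) added for 1 hr, then Alexa 594 FP read.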
% is set by controls: 0 for no effect and ±100 for the full control effect; potency is the fitted concentration of half-maximal effect; tags give direction and shape of the fitted curve.

UniProt P10636, sequence (P10636 whole entry, looked up, the tested form may be a part): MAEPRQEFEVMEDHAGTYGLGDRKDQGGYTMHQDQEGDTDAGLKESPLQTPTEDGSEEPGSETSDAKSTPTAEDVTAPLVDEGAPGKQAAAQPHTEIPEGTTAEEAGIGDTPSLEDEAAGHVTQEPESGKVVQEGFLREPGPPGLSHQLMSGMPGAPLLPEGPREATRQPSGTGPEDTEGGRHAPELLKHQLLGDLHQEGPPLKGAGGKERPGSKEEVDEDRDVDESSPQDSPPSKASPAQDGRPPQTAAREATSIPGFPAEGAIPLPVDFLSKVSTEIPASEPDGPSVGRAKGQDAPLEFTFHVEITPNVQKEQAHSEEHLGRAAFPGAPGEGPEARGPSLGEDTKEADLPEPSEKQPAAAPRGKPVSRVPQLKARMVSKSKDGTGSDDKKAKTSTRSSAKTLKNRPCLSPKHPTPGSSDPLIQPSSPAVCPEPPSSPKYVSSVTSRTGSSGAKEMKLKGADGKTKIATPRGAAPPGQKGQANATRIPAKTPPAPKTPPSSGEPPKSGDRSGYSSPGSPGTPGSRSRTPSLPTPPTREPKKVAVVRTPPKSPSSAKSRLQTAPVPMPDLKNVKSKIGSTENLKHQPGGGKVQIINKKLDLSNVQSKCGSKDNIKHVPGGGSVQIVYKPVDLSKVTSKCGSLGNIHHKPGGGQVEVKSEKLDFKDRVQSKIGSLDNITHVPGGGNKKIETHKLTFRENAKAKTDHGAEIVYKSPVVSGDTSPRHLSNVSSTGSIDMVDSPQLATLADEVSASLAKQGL

Potency, inconclusive:
Cc1ccc(C(C)C)c(OCCn2cc(C(=O)c3ccco3)c3ccccc32)c1 28.2 µM [inhibitor, partial curve, poor fit]
CCOc1ccc(-c2n[nH]c3c2C(c2ccccc2OC)N(c2ccc(Br)cc2)C3=O)cc1 (configuration not stated) 28.2 µM [inhibitor, partial curve, poor fit]
CCOC(=O)c1cnc2ccc(C(=O)OC)cc2c1Nc1ccc2c(c1)OCCO2 14.1 µM [activator, single point]
Cc1ccc(NC(=O)Cn2c(=O)n(Cc3ccco3)c(=O)c3ccccc32)cc1 28.2 µM [inhibitor, partial curve]
Cc1c(C(=O)C(=O)NCCc2ccc(S(N)(=O)=O)cc2)c2ccccc2n1C 39.8 µM [inhibitor, single point]
O=C(CSCc1ccc(Cl)cc1)N/N=C/c1ccc(OCC(=O)Nc2ccccc2)cc1 11.2 µM [inhibitor, partial curve]
O=c1[nH]c(SCc2ccc(F)cc2)nc2c1CCCC2 14.1 µM [inhibitor, single point]
CC1CN(C(=O)N2CCC(C(=O)NC3CCCCCC3)CC2)c2cc(Cl)ccc2O1 (configuration not stated) 35.5 µM [inhibitor, single point]
COc1cc(/C=N/Nc2nc3ccccc3[nH]2)cc(Br)c1OCC(=O)N(C)C 7.94 µM [activator, partial curve, poor fit]
COc1cc(O)c(NC(C)=O)c2nonc12 10 µM [inhibitor, partial curve]
Cc1ccc(C)c(C(=O)COC(=O)c2cc(Cl)nc3ccccc23)c1 44.7 µM [inhibitor, single point]
COc1ccc(/C=N/O)cc1COc1ccc(NC(C)=O)cc1 8.91 µM [inhibitor, single point]
COc1ccc(-c2cc(-c3ccccc3)c(C#N)c(SCC(O)CS(=O)(=O)Cc3ccccc3)n2)cc1 (configuration not stated) 14.1 µM [inhibitor, partial curve]
Cc1onc(-c2ccccc2)c1C(=O)NCCc1ccc(Cl)cc1 25.1 µM [inhibitor, partial curve, poor fit]
S=C(Nc1ccccc1)N1CCn2c1nc1ccccc12 11.2 µM [inhibitor, partial curve, poor fit]
CC(=O)Nc1c(O)c2ccccc2[nH]c1=O 4.47 µM [inhibitor, full curve]
Clc1ccc(-c2nc(NCCN3CCOCC3)c3ccccc3n2)cc1 25.1 µM [inhibitor, partial curve]
O=C(NCc1ccc2c(c1)OCO2)c1ccc(CSCc2ccccc2Cl)o1 8.91 µM [inhibitor, single point]
Cc1cc2nn(-c3ccccc3)nc2cc1NC(=O)c1cccs1 14.1 µM [inhibitor, partial curve]
COc1ccc(C2=NN(S(=O)(=O)c3ccccc3)C(c3ccccc3)C2)cc1 (configuration not stated) 2.24 µM [inhibitor, full curve, poor fit]
COc1ccc(NC(=O)CCSc2ccc(C)cc2)cc1S(=O)(=O)Nc1ccccc1Cl 2 µM [inhibitor, full curve]
COCCOC(=O)C1=C(C)OC(N)=C(C#N)C1c1cc2cccc(C)c2nc1Cl (configuration not stated) 10 µM [inhibitor, partial curve]
COc1cc(NC(=O)C2CCN(S(=O)(=O)c3c(C)noc3/C=C/c3cccs3)CC2)cc(OC)c1 12.6 µM [inhibitor, partial curve]
COc1ccc(S(=O)(=O)N(CC(=O)Nc2ccc(OC)cc2OC)c2ccc(Cl)cc2)cc1 25.1 µM [activator, single point]
C=CCn1c(CNc2ccc(C)cc2)nnc1SCC(=O)N/N=C/c1ccc(O)cc1O 12.6 µM [activator, partial curve, poor fit]
COc1cccc(CN(C)C(=O)c2cccc(OC3CCN(C4CCCC4)CC3)c2)c1 28.2 µM [inhibitor, single point]
Cc1ccc(C(=O)NC(=S)Nc2ccccc2C(F)(F)F)cc1 39.8 µM [inhibitor, single point]
COc1ccc(/C=C(/C#N)c2nc(-c3cc4ccccc4oc3=O)cs2)cc1 35.5 µM [inhibitor, single point]
COc1ccc(-c2nc(SCC(=O)c3ccc(Br)cc3)n[nH]2)cc1 12.6 µM [inhibitor, partial curve]
Brc1ccc(-c2ccc(/C=N/Nc3nc(N4CCOCC4)nc(N4CCOCC4)n3)o2)cc1 15.8 µM [activator, partial curve]
Cc1c(NC2=C(Cl)C(=O)N(c3ccccc3Cl)C2=O)c(=O)n(-c2ccccc2)n1C 22.4 µM [inhibitor, single point]
Cc1ccc(-c2cc(C(=O)OCC(=O)c3ccccc3)c3cccc(Cl)c3n2)cc1 25.1 µM [inhibitor, partial curve, poor fit]
Cc1cc(N(C)Cc2ccccc2)n2nc(-c3ccc(C(C)(C)C)cc3)nc2n1 3.55 µM [activator, single point]
C/C(=N\NC(=S)NC(C)C)c1ccc(Cl)c([N+](=O)[O-])c1 10 µM [inhibitor, partial curve]
Cc1ccc(S(=O)(=O)N2CCCCC2)cc1NC(=O)COC(=O)Cc1cccc(C(F)(F)F)c1 39.8 µM [inhibitor, single point]
CCn1c(=O)c([N+](=O)[O-])c(NCc2ccc3c(c2)OCO3)c2ccccc21 35.5 µM [inhibitor, single point]
CCC(NC(=O)Nc1cc(Cl)ccc1OC)c1c(-n2cccc2)sc2c1CCN(C)C2 (configuration not stated) 25.1 µM [inhibitor, single point]
N/C(=N\N=C\c1cccs1)SC1CC(=O)N(c2ccc(Br)cc2)C1=O (configuration not stated) 17.8 µM [inhibitor, single point]
CCc1ccc2[nH]c(=O)c(CN(CC3CCCO3)C(=S)NCc3ccco3)cc2c1 (configuration not stated) 25.1 µM [activator, single point]
N#CC1=C(N)Oc2n[nH]c(-c3cccs3)c2C1C1CCCCC1 (configuration not stated) 39.8 µM [inhibitor, single point]
Cc1cccc(CSc2nc(N)c(C#N)c(-c3cccs3)c2C#N)c1 3.98 µM [inhibitor, full curve]
COc1ccc(Cl)cc1NC(=O)Cc1coc2c(C)c(C)ccc12 8.91 µM [inhibitor, full curve, poor fit]
Cc1ccccc1C1=CCN(c2ncc(NC(=O)c3ccc(Cl)cc3)cc2C(=O)O)CC1 39.8 µM [inhibitor, single point]
O=C(Nc1ccc2c(c1)C(=O)N(CC1CCCO1)C2=O)c1cccc(Br)c1 (configuration not stated) 22.4 µM [inhibitor, partial curve]

Potency, inactive:
O=C(CSc1nc(-c2ccc(F)cc2)nc2c1Cc1ccccc1O2)Nc1cccc(C(=O)O)c1

Potency, active:
CCC(=O)NC1=C(Cl)C(=O)C(NC(=O)CC)=C(Cl)C1=O 3.55 µM
CN=c1scc(C)n1/N=C/c1ccc(O)c(O)c1O 25.1 µM
COc1ccc(O)c(N)c1 11.2 µM

activity, negative = inhibition, inactive:
COc1ccc(CCNC(=O)c2cc(Sc3cccc(Cl)c3)nc3ccccc23)cc1OC 4.14%
N#Cc1c(N)oc(-c2ccccc2)c1-c1ccccc1 -1.38%
CC(C)C[C@@H](CC(=O)N[C@@H](CCC(=O)O)CC(=O)O)NC(=O)[C@@H]1CCCC[C@H]1NC(=O)C[C@H](CCCN)NC(=O)C[C@H](CO)NC(=O)[C@@H]1CNCC[C@H]1N 3.78%
Cc1cn(C)c(CC(=O)N2CCN(c3cccc(C(F)(F)F)c3)CC2)c1C(=O)O -10.6%
COc1cccc(CN(CC2CCCO2)S(=O)(=O)c2ccc(S(=O)(=O)N(C)C)cc2)c1 (configuration not stated) 6.2%
CCOc1ccc(NC(=S)NCc2ccc3c(c2)OCO3)cc1 -5.01%
COc1cccc(/C=N/NC(=O)Cn2cnc3c2c(=O)n(C)c(=O)n3C)c1 -13%
COC(=O)NC(NC(=S)Nc1ccc([N+](=O)[O-])cc1)C(Cl)(Cl)Cl (configuration not stated) -8.02%
Cc1ccc(OCCCCn2ccnc2)c([N+](=O)[O-])c1 0.792%
O=C(c1ccccc1CCc1ccccc1)N1CCN(c2ccccn2)CC1 4.01%
CCNc1nc(OC)nc(Oc2ccc(=O)n(-c3ccccc3)n2)n1 5.83%
COc1ccc(OCCn2nnc3sc4c(c3c2=O)CCC(C(C)(C)C)C4)cc1 (configuration not stated) 0.374%
CCC(C)(C)n1nnnc1C(c1ccc(O)c(OC)c1)N1CCN(c2nc3ccccc3s2)CC1 (configuration not stated) -14.8%
c1ccc(COc2ccc(Nc3ncnc4nc[nH]c34)cc2)cc1 18.1%
CC(C)n1nnnc1SCC(=O)Nc1ccccc1N1CCOCC1 -7.45%
Cc1ccc(-c2nc(NC(=O)CSc3ncn[nH]3)ns2)cc1 -2.98%
Cc1cc(C)n(C(=O)CNC(=O)CCc2ccccc2)n1 4.57%
Brc1ccc(C2=CSC3=NCCN23)cc1 -0.422%
COc1ccccc1N1CCN(CCCC(=O)c2ccc(F)cc2)CC1 4.85%
